Measurements: US10201158B2, “Plant disease control composition and method for controlling plant disease by application of same” (MITSUI CHEMICALS AGRO, INC., priority 2014, dated 2019)

System: Botrytis cinerea
Format: in vivo
[1] = Table 2-5, treatment concentration 50 ppm

CN1OC(c2ccc(Cl)cc2)CC1(C)c1cccnc1 (centres unmarked) [Pyrisoxazole (b-103), Pyrisoxazole]
Preventive value (Table 2-5, treatment concentration 10 ppm): 40

COP(=S)(OC)Oc1c(Cl)cc(C)cc1Cl [Tolclofos-methyl]
Preventive value (Table 2-10 (Comparative Example 1), treatment concentration 50 ppm): 17

Metiram [Metiram (b-67)]
Preventive value [1]: 67

C=CCSC(=O)n1c(N)c(-c2ccccc2C)c(=O)n1C(C)C [Fenpyrazamine (b-99), Fenpyrazamine]
Preventive value (Table 2-3, treatment concentration 10 ppm): 47

CN(C)C(=S)SSC(=S)N(C)C [Thiuram (b-68), Thiuram]
Preventive value [1]: 67

Like-named read-outs stand apart in the source and are kept apart here.
